Cell count data for 16 compounds are collected here from the supplement of paper PMC4604168 (melanoma cell lines).

Molecules are shown by their SMILES. Some of the results follow. Many values rest on one well or one pass, so single values are uncertain.
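Note: cells treated in 1,536-well plates, then fixed and DAPI-stained, with nuclei counted from automated high-throughput microscope images.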

The test relates to A2058. Briefly: cell count relative to DMSO control; melanoma cells; higher = more viable cells. The settings on record: library dose: standard library concentration; 72 h.
Take `CN(C)S(=O)(=O)c1ccc2c(c1)/C(=C/c1cc3c([nH]1)CCCC3)C(=O)N2` + O=C(O)c1ccc(-c2c[nH]c3ncc(-c4ccccc4)cc23)cc1C1CCCC1 [GSK650394] (first compound 2 µM, partner dose 0.8 µM): the cell count turned out to be 86.4%.

`C[C@]1(c2nc3c(C(N)=O)cccc3[nH]2)CCCN1` [Veliparib] + O=C(O)c1ccc(-c2c[nH]c3ncc(-c4ccccc4)cc23)cc1C1CCCC1 [GSK650394] (first compound 7 µM, partner dose 0.8 µM) gave a cell count of 76.9%. Regarding `C=CCn1c(=O)c2cnc(Nc3ccc(N4CCN(C)CC4)cc3)nc2n1-c1cccc(C(C)(C)O)n1` + Cc1cc(N2CCOCC2)cc2[nH]c(-c3c(NC[C@@H](O)c4cccc(Cl)c4)cc[nH]c3=O)nc12 [BMS536924] (first compound 0.1 µM, partner dose 1 µM), the cell count amounted to 72%. `CN(C)S(=O)(=O)c1ccc2c(c1)/C(=C/c1cc3c([nH]1)CCCC3)C(=O)N2` + CN(NC(=O)CC(=O)NN(C)C(=S)c1ccccc1)C(=S)c1ccccc1 [STA4783] (first compound 2 µM, partner dose 0.03 µM) registered a cell count of 7.3%.

`C[C@]1(c2nc3c(C(N)=O)cccc3[nH]2)CCCN1` [Veliparib] + Cn1nnc2c(C(N)=O)ncn2c1=O [temozolomide] (first compound 7 µM, partner dose 10 µM): the cell count was found to be 25.4%. Take `Cc1nc(Nc2ncc(C(=O)Nc3c(C)cccc3Cl)s2)cc(N2CCN(CCO)CC2)n1` [dasatanib] + CN(NC(=O)CC(=O)NN(C)C(=S)c1ccccc1)C(=S)c1ccccc1 [STA4783] (first compound 0.02 µM, partner dose 0.03 µM): the cell count is 18%. The result for `Cc1nc(Nc2ncc(C(=O)Nc3c(C)cccc3Cl)s2)cc(N2CCN(CCO)CC2)n1` [dasatanib] + CC(C)(C)c1cnc(CSc2cnc(NC(=O)C3CCNCC3)s2)o1 [SNS-032] (first compound 0.02 µM, partner dose 0.05 µM) reads 72.3%; that for `Cc1nc(Nc2ncc(C(=O)Nc3c(C)cccc3Cl)s2)cc(N2CCN(CCO)CC2)n1` [dasatanib] + CN(C)S(=O)(=O)c1ccc2c(c1)/C(=C/c1cc3c([nH]1)CCCC3)C(=O)N2 [SU6656] (first compound 0.02 µM, partner dose 2 µM), 69.2%; that for `C=CCn1c(=O)c2cnc(Nc3ccc(N4CCN(C)CC4)cc3)nc2n1-c1cccc(C(C)(C)O)n1` + Cc1cc([N+](=O)[O-])ccc1NS(=O)(=O)c1cc(Cl)ccc1Cl [FH535] (first compound 0.1 µM, partner dose 5 µM), 76.7%.

Compound `OCCn1cc(-c2cnc3nnn(Cc4ccc5ncccc5c4)c3n2)cn1` + O=C(Nc1cccc(Cl)c1)Nc1ncc(CCNc2ncnc3ccsc23)s1 [SNS314] (first compound 5 µM, partner dose 0.004 µM) yielded a cell count of 80.4%. The compound `Cc1nc(Nc2ncc(C(=O)Nc3c(C)cccc3Cl)s2)cc(N2CCN(CCO)CC2)n1` [dasatanib] + C[C@@H]1CCN(C(=O)CC#N)C[C@@H]1N(C)c1ncnc2[nH]ccc12 [CP690550] (first compound 0.02 µM, partner dose 5 µM) had a cell count of 74.7%.

`NCC(=O)Nc1ccc(-n2nc(C(F)(F)F)cc2-c2ccc3c(ccc4ccccc43)c2)cc1` + CN(NC(=O)CC(=O)NN(C)C(=S)c1ccccc1)C(=S)c1ccccc1 [STA4783] (first compound 5 µM, partner dose 0.03 µM) gave a cell count of 18.2%. As for `Cc1nc(Nc2ncc(C(=O)Nc3c(C)cccc3Cl)s2)cc(N2CCN(CCO)CC2)n1` [dasatanib] + COCC[n+]1c2c(n(Cc3cnccn3)c1C)C(=O)c1ccccc1C2=O [YM155] (first compound 0.02 µM, partner dose 0.002 µM), the cell count was found to be 16.6%. The result for `CN(C)S(=O)(=O)c1ccc2c(c1)/C(=C/c1cc3c([nH]1)CCCC3)C(=O)N2` + CC(C)CCN1c2nc(Nc3cc(F)c(O)c(F)c3)ncc2N(C)C(=O)C1C [BID1870] (first compound 2 µM, partner dose 1 µM) reads 94.3%; that for `C=CCn1c(=O)c2cnc(Nc3ccc(N4CCN(C)CC4)cc3)nc2n1-c1cccc(C(C)(C)O)n1` + Cc1ccc(NC(=O)c2cccc(N(C)C)c2)cc1NC(=O)c1ccc(O)cc1 [ZM336372] (first compound 0.1 µM, partner dose 10 µM), 91.2%. The result for `Cc1nc(Nc2ncc(C(=O)Nc3c(C)cccc3Cl)s2)cc(N2CCN(CCO)CC2)n1` [dasatanib] + O=C(Nc1cccc(Cl)c1)Nc1ncc(CCNc2ncnc3ccsc23)s1 [SNS314] (first compound 0.02 µM, partner dose 0.004 µM) reads 51.9%.
